Laboratory results as given in the supplement of paper PMC8728848.
The list shows a part of the results.

How the values were obtained:
Assay in all cases: glycan array binding signal (z-score within array); higher = stronger binding
Conditions in all cases: glycan notation: IUPAC condensed, linker removed
[1] = molecular target: Neu5Ac(a2-3)[Neu5Ac(a2-6)]GalNAc
Outline: (§1)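 Negative Z-scores can be read as non-binding. The Z-score is calculated within each array and then averaged across arrays of one protein sequence at different concentrations or buffers and across linkers. Arrays, 3228 in all, were curated from the Consortium for Functional Glycomics database and kept only where the protein sequence was available.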

Neu5Ac(a2-6)Gal = molecular target: Neu5Ac(a2-6)Gal
Outline: as §1

Neu5Ac(a2-6)Gal(b1-4)Glc = molecular target: Neu5Ac(a2-6)Gal(b1-4)Glc
Outline: as §1

[2] = molecular target: Neu5Ac(a2-6)Gal(b1-4)GlcNAc
Outline: as §1

[3] = molecular target: Neu5Ac(a2-6)Gal(b1-4)GlcNAc(b1-2)Man(a1-3)[Gal(b1-4)GlcNAc(b1-2)Man(a1-6)]Man(b1-4)GlcNAc(b1-4)GlcNAc
Outline: as §1

[4] = molecular target: Neu5Ac(a2-6)Gal(b1-4)GlcNAc(b1-2)Man(a1-3)[GlcNAc(b1-2)Man(a1-6)]Man(b1-4)GlcNAc(b1-4)GlcNAc
Outline: as §1

[5] = molecular target: Neu5Ac(a2-6)Gal(b1-4)GlcNAc(b1-2)Man(a1-3)[GlcNAc(b1-2)Man(b1-4)GlcNAc(b1-2)Man(a1-6)]Man(b1-4)GlcNAc(b1-4)GlcNAc
Outline: as §1

[6] = molecular target: Neu5Ac(a2-6)Gal(b1-4)GlcNAc(b1-2)Man(a1-3)[Neu5Ac(a2-6)Gal(b1-4)GlcNAc(b1-2)Man(a1-6)]Man(b1-4)GlcNAc(b1-4)GlcNAc
Outline: as §1

[7] = molecular target: Neu5Ac(a2-6)Gal(b1-4)GlcNAc(b1-2)Man(a1-6)[Gal(b1-4)GlcNAc(b1-2)Man(a1-3)]Man(b1-4)GlcNAc(b1-4)GlcNAc
Outline: as §1

[8] = molecular target: Neu5Ac(a2-6)Gal(b1-4)GlcNAc(b1-2)Man(a1-6)[GlcNAc(b1-2)Man(a1-3)]Man(b1-4)GlcNAc(b1-4)GlcNAc
Outline: as §1

[9] = molecular target: Neu5Ac(a2-6)Gal(b1-4)GlcNAc(b1-3)Gal(b1-4)GlcNAc
Outline: as §1

[10] = molecular target: Neu5Ac(a2-6)Gal(b1-4)GlcNAc(b1-3)Gal(b1-4)[Fuc(a1-3)]GlcNAc(b1-3)Gal(b1-4)[Fuc(a1-3)]GlcNAc
Outline: as §1

[11] = molecular target: Neu5Ac(a2-6)Gal(b1-4)GlcNAc6S
Outline: as §1

Neu5Ac(a2-6)GalNAc = molecular target: Neu5Ac(a2-6)GalNAc
Outline: as §1

[12] = molecular target: Neu5Ac(a2-6)GalNAc(b1-4)GlcNAc
Outline: as §1

Neu5Ac(a2-8)Neu5Ac = molecular target: Neu5Ac(a2-8)Neu5Ac
Outline: as §1

[13] = molecular target: Neu5Ac(a2-8)Neu5Ac(a2-3)Gal(b1-4)Glc
Outline: as §1

[14] = molecular target: Neu5Ac(a2-8)Neu5Ac(a2-3)[GalNAc(b1-4)]Gal(b1-4)Glc
Outline: as §1

[15] = molecular target: Neu5Ac(a2-8)Neu5Ac(a2-8)Neu5Ac
Outline: as §1

[16] = molecular target: Neu5Ac(a2-8)Neu5Ac(a2-8)Neu5Ac(a2-3)Gal(b1-4)Glc
Outline: as §1

[17] = molecular target: Neu5Ac(a2-8)Neu5Ac(a2-8)Neu5Ac(a2-3)[GalNAc(b1-4)]Gal(b1-4)Glc
Outline: as §1

[18] = molecular target: Neu5Ac(a2-8)Neu5Ac(a2-8)Neu5Ac(a2-8)Neu5Ac(a2-3)[GalNAc(b1-4)]Gal(b1-4)Glc
Outline: as §1

Neu5Ac(b1-6)GalNAc = molecular target: Neu5Ac(b1-6)GalNAc
Outline: as §1

[19] = molecular target: Neu5Ac(b2-6)Gal(b1-4)GlcNAc
Outline: as §1

Neu5Ac(b2-6)GalNAc = molecular target: Neu5Ac(b2-6)GalNAc
Outline: as §1

[20] = molecular target: Neu5Ac9Ac(a2-6)Gal(b1-4)GlcNAc
Outline: as §1

[21] = molecular target: Neu5Gc(a2-3)Gal(b1-3)GlcNAc
Outline: as §1

[22] = molecular target: Neu5Gc(a2-3)Gal(b1-3)[Fuc(a1-4)]GlcNAc
Outline: as §1

Neu5Gc(a2-3)Gal(b1-4)Glc = molecular target: Neu5Gc(a2-3)Gal(b1-4)Glc
Outline: as §1

[23] = molecular target: Neu5Gc(a2-3)Gal(b1-4)GlcNAc
Outline: as §1

[24] = molecular target: Neu5Gc(a2-3)Gal(b1-4)[Fuc(a1-3)]GlcNAc
Outline: as §1

[25] = molecular target: Neu5Gc(a2-6)Gal(b1-4)GlcNAc
Outline: as §1

Neu5Gc(a2-6)GalNAc = molecular target: Neu5Gc(a2-6)GalNAc
Outline: as §1

[26] = molecular target: Neu5Gc(b2-6)Gal(b1-4)GlcNAc
Outline: as §1

B1: P-Selectin (Mus musculus), Q01102 (protein)
chain: MAGCPKGSWTPRLRSVILGGAQLIWFSALISELVNQKEVAAWTYNYSTKAYSWNNSRVFCRRHFTDLVAIQNKNEIAHLNDVIPFFNSYYWIGIRKINNKWTWVGTNKTLTEEAENWADNEPNNKKNNQDCVEIYIKSNSAPGKWNDEPCFKRKRALCYTASCQDMSCSNQGECIETIGSYTCSCYPGFYGPECEYVKECGKVNIPQHVLMNCSHPLGEFSFNSQCTFSCAEGYELDGPGELQCLASGIWTNNPPKCDAVQCQSLEAPPHGTMACMHPIAAFAYDSSCKFECQPGYRARGSNTLHCTGSGQWSEPLPTCEAIACEPPEIPIHGSMDCVPSTGTFGYNSSCTFLCAEGFVLKGNDAIQCADSGQWTAPAPFCEALQCPEFPVPSKAQVNCSDPFGTLTYQSVCSFSCDEGSLLVGASVIRCLATGHWNGAPPECQAVSCAPMLSPENGSMTCVQPLGNSTYKSTCQFMCDEGFYLSGPERLDCSPSGHWTGTPPTCEAIKCPGIFAPEQGNLDCSHVHGEFGVGSICHFSCNEDFELLGSENVECTVSGRWSAPPPTCKGITSLPAPAVRCPALTTPGQGTMSCQHHLGSFGPNTTCYFGCKTGFTLRGANSLRCRASGQWTAVTPMCRAVKCSELHMDTAVAMNCSNPWGNFSYGSTCTFQCPEGQSLNGSVRATCREDGHWSDAMPTCQAGTLTIQEALTYLGGAVASTTGLAVGGTLLALLRKRLRKKDDGKCPLNPHSHLGTYGVFTNAAYDPTP
- glycan array binding signal (z-score) [1]: 0.023
- glycan array binding signal (z-score) (Neu5Ac(a2-6)Gal): -0.299
- glycan array binding signal (z-score) (Neu5Ac(a2-6)Gal(b1-4)Glc): -0.31
- glycan array binding signal (z-score) [2]: -0.451
- glycan array binding signal (z-score) [3]: -0.298
- glycan array binding signal (z-score) [4]: -0.248
- glycan array binding signal (z-score) [5]: -0.268
- glycan array binding signal (z-score) [6]: -0.116
- glycan array binding signal (z-score) [7]: -0.293
- glycan array binding signal (z-score) [8]: -0.311
- glycan array binding signal (z-score) [9]: -0.535
- glycan array binding signal (z-score) [10]: 0.242
- glycan array binding signal (z-score) [11]: 0.597
- glycan array binding signal (z-score) (Neu5Ac(a2-6)GalNAc): -0.339
- glycan array binding signal (z-score) [12]: -0.307
- glycan array binding signal (z-score) (Neu5Ac(a2-8)Neu5Ac): -0.254
- glycan array binding signal (z-score) [13]: -0.183
- glycan array binding signal (z-score) [14]: -0.223
- glycan array binding signal (z-score) [15]: -0.086
- glycan array binding signal (z-score) [16]: -0.297
- glycan array binding signal (z-score) [17]: -0.21
- glycan array binding signal (z-score) [18]: -0.517
- glycan array binding signal (z-score) (Neu5Ac(b1-6)GalNAc): 0.027
- glycan array binding signal (z-score) [19]: -0.327
- glycan array binding signal (z-score) (Neu5Ac(b2-6)GalNAc): -0.354
- glycan array binding signal (z-score) [20]: -0.188
- glycan array binding signal (z-score) [21]: -0.17
- glycan array binding signal (z-score) [22]: 3.75
- glycan array binding signal (z-score) (Neu5Gc(a2-3)Gal(b1-4)Glc): -0.329
- glycan array binding signal (z-score) [23]: -0.056
- glycan array binding signal (z-score) [24]: 3.15
- glycan array binding signal (z-score) [25]: -0.179
- glycan array binding signal (z-score) (Neu5Gc(a2-6)GalNAc): -0.384
- glycan array binding signal (z-score) [26]: -0.329
